IC50 data for 5 compounds are collected here from paper PMC6458391, “Deep eutectic solvent for an expeditious sono-synthesis of novel series of bis-quinazolin-4-one derivatives as potential anti-cancer agents” (Royal Society Open Science, 2019).

This experiment concerns normal breast cell line (MCF-10A). As to conditions: read-out: IC50 MCF-10A, MTT. On the procedure: From the obtained results, we can conclude that these derivatives might be further used as promising anti-cancer agents.
The experiment was performed in triplicate.
For `Cc1nc2ccc([N+](=O)[O-])cc2c(=O)n1-c1ccc(-n2c(C)nc3ccc([N+](=O)[O-])cc3c2=O)cc1` [Compound 6e, 3,3′-(1,4-Phenylene)bis(2-methyl-6-nitroquinazolin-4(3H)-one)], the IC50 was determined as 5.65 ± 2.34 µM.
The same measure for `Cc1nc2ccc(F)cc2c(=O)n1-c1ccc(S(=O)(=O)c2ccc(-n3c(C)nc4ccc(F)cc4c3=O)cc2)cc1` [Compound 7d, 3,3′-(Sulfonylbis(4,1-phenylene))bis(6-fluoro-2-methylquinazolin-4(3H)-one)]: 5.98 ± 1.86 µM; for `CNC(=O)c1cc(Oc2ccc(NC(=O)Nc3ccc(Cl)c(C(F)(F)F)c3)cc2)ccn1` [Sorafenib, sorafenib, reference compound]: 5.98 ± 0.49 µM; for `Cc1nc2ccc([N+](=O)[O-])cc2c(=O)n1-c1ccc(S(=O)(=O)c2ccc(-n3c(C)nc4ccc([N+](=O)[O-])cc4c3=O)cc2)cc1` [Compound 7e, 3,3′-(Sulfonylbis(4,1-phenylene))bis(2-methyl-6-nitroquinazolin-4(3H)-one)]: 7.17 ± 0.76 µM.
To `Cc1nc2ccc([N+](=O)[O-])cc2c(=O)n1Cc1ccc(Cn2c(C)nc3ccc([N+](=O)[O-])cc3c2=O)cc1` [Compound 4e, 3,3′-(1,4-Phenylenebis(methylene))bis(2-methyl-6-nitroquinazolin-4(3H)-one)] belongs 5.43 ± 2.46 µM.

For orientation: IC50 means the concentration that gives 50% inhibition.
